# Some of the results follow.
# How the values were obtained:
# Experiment in all cases: glycan array binding signal (z-score within array); higher = stronger binding
# Details in all cases: glycan notation: IUPAC condensed, linker removed
# [1] = molecular target: Fuc(a1-2)Gal
# Summary of the method: (§1)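 Glycan array binding is given as a within-array Z-score, which can be read as non-binding when negative. The arrays, 3228 of them, came from the Consortium for Functional Glycomics database and were retained only where the protein sequence was available. Z-scores were averaged across arrays of the same protein sequence at different concentrations or buffers and across linkers.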
# [2] = molecular target: Fuc(a1-2)Gal(b1-3)GalNAc
# Summary of the method: as §1
# [3] = molecular target: Fuc(a1-2)Gal(b1-3)GalNAc(b1-3)Gal
# Summary of the method: as §1
# [4] = molecular target: Fuc(a1-2)Gal(b1-3)GalNAc(b1-3)Gal(a1-4)Gal(b1-4)Glc
# Summary of the method: as §1
# [5] = molecular target: Fuc(a1-2)Gal(b1-3)GalNAc(b1-3)Gal(b1-4)Glc
# Summary of the method: as §1
# [6] = molecular target: Fuc(a1-2)Gal(b1-3)GalNAc(b1-4)[Neu5Ac(a2-3)]Gal(b1-4)Glc
# Summary of the method: as §1
# [7] = molecular target: Fuc(a1-2)Gal(b1-3)[Fuc(a1-4)]GlcNAc
# Summary of the method: as §1
# [8] = molecular target: Fuc(a1-2)Gal(b1-4)Glc
# Summary of the method: as §1
# [9] = molecular target: Fuc(a1-2)Gal(b1-4)Glc6S
# Summary of the method: as §1
# [10] = molecular target: Fuc(a1-2)Gal(b1-4)GlcNAc
# Summary of the method: as §1
# [11] = molecular target: Fuc(a1-2)Gal(b1-4)GlcNAc(b1-3)Gal(b1-4)GlcNAc
# Summary of the method: as §1
# [12] = molecular target: Fuc(a1-2)Gal(b1-4)GlcNAc(b1-3)Gal(b1-4)GlcNAc(b1-3)Gal(b1-4)GlcNAc
# Summary of the method: as §1
# [13] = molecular target: Fuc(a1-2)Gal(b1-4)GlcNAc6S
# Summary of the method: as §1
# [14] = molecular target: Fuc(a1-2)Gal(b1-4)[Fuc(a1-3)]GalNAc(b1-3)Gal(b1-4)[Fuc(a1-3)]GlcNAc
# Summary of the method: as §1
# [15] = molecular target: Fuc(a1-2)Gal(b1-4)[Fuc(a1-3)]GalNAc(b1-3)Gal(b1-4)[Fuc(a1-3)]GlcNAc(b1-3)Gal(b1-4)[Fuc(a1-3)]GalNAc
# Summary of the method: as §1
# [16] = molecular target: Fuc(a1-2)Gal(b1-4)[Fuc(a1-3)]GlcNAc
# Summary of the method: as §1
# [17] = molecular target: Fuc(a1-2)Gal6S(b1-4)Glc
# Summary of the method: as §1
# [18] = molecular target: Fuc(a1-2)Gal6S(b1-4)Glc6S
# Summary of the method: as §1
# [19] = molecular target: Fuc(a1-2)Gal6S(b1-4)GlcNAc
# Summary of the method: as §1
# [20] = molecular target: Fuc(a1-2)GlcNAc
# Summary of the method: as §1
# [21] = molecular target: Fuc(a1-2)[Gal(a1-3)]Gal
# Summary of the method: as §1
# [22] = molecular target: Fuc(a1-2)[Gal(a1-3)]Gal(b1-3)GlcNAc
# Summary of the method: as §1
# [23] = molecular target: Fuc(a1-2)[Gal(a1-3)]Gal(b1-4)Glc
# Summary of the method: as §1
# [24] = molecular target: Fuc(a1-2)[Gal(a1-3)]Gal(b1-4)GlcNAc
# Summary of the method: as §1
# [25] = molecular target: Fuc(a1-2)[Gal(a1-3)]Gal(b1-4)[Fuc(a1-3)]GlcNAc
# Summary of the method: as §1
# [26] = molecular target: Fuc(a1-2)[Gal(a1-4)]Gal(b1-4)GalNAc
# Summary of the method: as §1
# [27] = molecular target: Fuc(a1-2)[GalNAc(a1-3)]Gal
# Summary of the method: as §1
# [28] = molecular target: Fuc(a1-2)[GalNAc(a1-3)]Gal(b1-3)GlcNAc
# Summary of the method: as §1
# [29] = molecular target: Fuc(a1-2)[GalNAc(a1-3)]Gal(b1-4)Glc
# Summary of the method: as §1
# [30] = molecular target: Fuc(a1-2)[GalNAc(a1-3)]Gal(b1-4)GlcNAc
# Summary of the method: as §1
# [31] = molecular target: Fuc(a1-2)[GalNAc(a1-3)]Gal(b1-4)[Fuc(a1-3)]GlcNAc
# Summary of the method: as §1
# [32] = molecular target: Fuc(a1-2)[GalNAc(a1-4)]Gal(b1-4)GlcNAc
# Summary of the method: as §1
# [33] = molecular target: Fuc(a1-3)GlcNAc
# Summary of the method: as §1
# [34] = molecular target: Fuc(a1-3)[Gal(b1-4)]Glc6S
# Summary of the method: as §1
# [35] = molecular target: Fuc(a1-3)[Gal(b1-4)]GlcNAc
# Summary of the method: as §1
# [36] = molecular target: Fuc(a1-3)[Gal(b1-4)]GlcNAc(b1-3)Gal(b1-3)[Fuc(a1-4)]GlcNAc
# Summary of the method: as §1
# [37] = molecular target: Fuc(a1-3)[Gal(b1-4)]GlcNAc(b1-4)Gal(b1-4)[Fuc(a1-3)]GlcNAc
# Summary of the method: as §1
binder,measurement,setting,value
"FBG4 (Homo sapiens), Q96EF6 (protein) MGARLSRRRLPADPSLALDALPPELLVQVLSHVPPRSLVTRCRPVCRAWRDIVDGPTVWLLQLARDRSAEGRALYAVAQRCLPSNEDKEEFPLCALARYCLRAPFGRNLIFNSCGEQGFRGWEVEHGGNGWAIEKNLTPVPGAPSQTCFVTSFEWCSKRQLVDLVMEGVWQELLDSAQIEICVADWWGARENCGCVYQLRVRLLDVYEKEVVKFSASPDPVLQWTERGCRQVSHVFTNFGKGIRYVSFEQYGRDVSSWVGHYGALVTHSSVRVRIRLS",glycan array binding signal (z-score),[1],-0.503
same,glycan array binding signal (z-score),[2],-0.185
same,glycan array binding signal (z-score),[3],1.54
same,glycan array binding signal (z-score),[4],-0.097
same,glycan array binding signal (z-score),[5],-0.32
same,glycan array binding signal (z-score),[6],0.24
same,glycan array binding signal (z-score),[7],-0.22
same,glycan array binding signal (z-score),[8],-0.442
same,glycan array binding signal (z-score),[9],-0.413
same,glycan array binding signal (z-score),[10],-0.263
same,glycan array binding signal (z-score),[11],-0.136
same,glycan array binding signal (z-score),[12],0.051
same,glycan array binding signal (z-score),[13],-0.263
same,glycan array binding signal (z-score),[14],0.146
same,glycan array binding signal (z-score),[15],-0.084
same,glycan array binding signal (z-score),[16],0.062
same,glycan array binding signal (z-score),[17],-0.489
same,glycan array binding signal (z-score),[18],0.466
same,glycan array binding signal (z-score),[19],-0.475
same,glycan array binding signal (z-score),[20],-0.538
same,glycan array binding signal (z-score),[21],-0.532
same,glycan array binding signal (z-score),[22],-0.347
same,glycan array binding signal (z-score),[23],-0.492
same,glycan array binding signal (z-score),[24],-0.135
same,glycan array binding signal (z-score),[25],-0.137
same,glycan array binding signal (z-score),[26],-0.227
same,glycan array binding signal (z-score),[27],-0.41
same,glycan array binding signal (z-score),[28],-0.102
same,glycan array binding signal (z-score),[29],0.01
same,glycan array binding signal (z-score),[30],-0.109
same,glycan array binding signal (z-score),[31],-0.043
same,glycan array binding signal (z-score),[32],-0.49
same,glycan array binding signal (z-score),[33],-0.513
same,glycan array binding signal (z-score),[34],-0.208
same,glycan array binding signal (z-score),[35],-0.467
same,glycan array binding signal (z-score),[36],-0.331
same,glycan array binding signal (z-score),[37],-0.228

# Source: the supplement of paper PMC8728848
